Source: the supplement of paper PMC8728848
This is one part of the list.

Legend:
Test in all cases: glycan array binding signal (z-score within array); higher = stronger binding
Details in all cases: glycan notation: IUPAC condensed, linker removed
Gal(b1-2)Gal = biological target: Gal(b1-2)Gal
Outline: (§1)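 The binding signal is a Z-score computed within each array and averaged over linkers. Arrays of the same protein sequence at different concentrations or buffers were also averaged together. Data originate from 3228 arrays in the Consortium for Functional Glycomics database, kept only where the protein sequence was available.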

Gal(b1-3)Gal = biological target: Gal(b1-3)Gal
Outline: as §1

Gal(b1-3)Gal(b1-4)GlcNAc = biological target: Gal(b1-3)Gal(b1-4)GlcNAc
Outline: as §1

Gal(b1-3)GalNAc = biological target: Gal(b1-3)GalNAc
Outline: as §1

[1] = biological target: Gal(b1-3)GalNAc(a1-3)[Fuc(a1-2)]Gal(b1-4)Glc
Outline: as §1

[2] = biological target: Gal(b1-3)GalNAc(a1-3)[Fuc(a1-2)]Gal(b1-4)GlcNAc
Outline: as §1

Gal(b1-3)GalNAc(b1-3)Gal = biological target: Gal(b1-3)GalNAc(b1-3)Gal
Outline: as §1

[3] = biological target: Gal(b1-3)GalNAc(b1-3)Gal(a1-4)Gal(b1-4)Glc
Outline: as §1

[4] = biological target: Gal(b1-3)GalNAc(b1-4)Gal(b1-4)Glc
Outline: as §1

[5] = biological target: Gal(b1-3)GalNAc(b1-4)[Neu5Ac(a2-3)]Gal(b1-4)Glc
Outline: as §1

Gal(b1-3)GlcNAc = biological target: Gal(b1-3)GlcNAc
Outline: as §1

[6] = biological target: Gal(b1-3)GlcNAc(a1-3)Gal(b1-4)GlcNAc
Outline: as §1

[7] = biological target: Gal(b1-3)GlcNAc(a1-6)Gal(b1-4)GlcNAc
Outline: as §1

Gal(b1-3)GlcNAc(b1-2)Man = biological target: Gal(b1-3)GlcNAc(b1-2)Man
Outline: as §1

[8] = biological target: Gal(b1-3)GlcNAc(b1-2)Man(a1-3)[Gal(b1-3)GlcNAc(b1-2)Man(a1-6)]Man(b1-4)GlcNAc(b1-4)GlcNAc
Outline: as §1

[9] = biological target: Gal(b1-3)GlcNAc(b1-2)Man(a1-3)[Gal(b1-3)GlcNAc(b1-2)Man(a1-6)]Man(b1-4)GlcNAc(b1-4)[Fuc(a1-6)]GlcNAc
Outline: as §1

[10] = biological target: Gal(b1-3)GlcNAc(b1-2)Man(a1-3)[GlcNAc(b1-4)][Gal(b1-3)GlcNAc(b1-2)Man(a1-6)]Man(b1-4)GlcNAc(b1-4)GlcNAc
Outline: as §1

[11] = biological target: Gal(b1-3)GlcNAc(b1-2)[Gal(b1-3)GlcNAc(b1-6)]Man(a1-6)[Gal(b1-3)GlcNAc(b1-2)Man(a1-3)]Man(b1-4)GlcNAc(b1-4)GlcNAc
Outline: as §1

[12] = biological target: Gal(b1-3)GlcNAc(b1-3)Gal(b1-3)GlcNAc
Outline: as §1

[13] = biological target: Gal(b1-3)GlcNAc(b1-3)Gal(b1-4)Glc
Outline: as §1

[14] = biological target: Gal(b1-3)GlcNAc(b1-3)Gal(b1-4)GlcNAc
Outline: as §1

[15] = biological target: Gal(b1-3)GlcNAc(b1-3)Gal(b1-4)GlcNAc(b1-2)Man(a1-3)[Gal(b1-3)GlcNAc(b1-3)Gal(b1-4)GlcNAc(b1-2)Man(a1-6)]Man(b1-4)GlcNAc(b1-4)GlcNAc
Outline: as §1

[16] = biological target: Gal(b1-3)GlcNAc(b1-3)Gal(b1-4)GlcNAc(b1-2)[Gal(b1-3)GlcNAc(b1-3)Gal(b1-4)GlcNAc(b1-6)]Man(a1-6)[Gal(b1-3)GlcNAc(b1-3)Gal(b1-4)GlcNAc(b1-2)Man(a1-3)]Man(b1-4)GlcNAc(b1-4)[Fuc(a1-6)]GlcNAc
Outline: as §1

[17] = biological target: Gal(b1-3)GlcNAc(b1-3)Gal(b1-4)GlcNAc(b1-3)Gal(b1-4)GlcNAc(b1-2)[Gal(b1-3)GlcNAc(b1-3)Gal(b1-4)GlcNAc(b1-3)Gal(b1-4)GlcNAc(b1-6)]Man(a1-6)[Gal(b1-3)GlcNAc(b1-3)Gal(b1-4)GlcNAc(b1-3)Gal(b1-4)GlcNAc(b1-2)Man(a1-3)]Man(b1-4)GlcNAc(b1-4)[Fuc(a1-6)]GlcNAc
Outline: as §1

[18] = biological target: Gal(b1-3)GlcNAc(b1-3)Gal(b1-4)GlcNAc(b1-6)[Gal(b1-3)GlcNAc(b1-3)]Gal(b1-4)Glc
Outline: as §1

[19] = biological target: Gal(b1-3)GlcNAc(b1-3)Gal(b1-4)[Fuc(a1-3)]GlcNAc
Outline: as §1

[20] = biological target: Gal(b1-3)GlcNAc(b1-3)Gal(b1-4)[Fuc(a1-3)]GlcNAc(b1-6)[Gal(b1-3)GlcNAc(b1-3)]Gal(b1-4)Glc
Outline: as §1

[21] = biological target: Gal(b1-3)GlcNAc(b1-3)GalNAc
Outline: as §1

[22] = biological target: Gal(b1-3)GlcNAc(b1-6)Gal(b1-4)GlcNAc
Outline: as §1

[23] = biological target: Gal(b1-3)GlcNAc(b1-6)GalNAc
Outline: as §1

[24] = biological target: Gal(b1-3)GlcNAc(b1-6)[Gal(b1-3)]GalNAc
Outline: as §1

Gal(b1-3)GlcNAc6S = biological target: Gal(b1-3)GlcNAc6S
Outline: as §1

[25] = biological target: Gal(b1-3)[Fuc(a1-4)]GlcNAc
Outline: as §1

[26] = biological target: Gal(b1-3)[Fuc(a1-4)]GlcNAc(b1-2)Man
Outline: as §1

[27] = biological target: Gal(b1-3)[Fuc(a1-4)]GlcNAc(b1-2)Man(a1-3)[Gal(b1-3)[Fuc(a1-4)]GlcNAc(b1-2)Man(a1-6)]Man(b1-4)GlcNAc(b1-4)[Fuc(a1-6)]GlcNAc
Outline: as §1

[28] = biological target: Gal(b1-3)[Fuc(a1-4)]GlcNAc(b1-3)Gal(b1-3)[Fuc(a1-4)]GlcNAc
Outline: as §1

[29] = biological target: Gal(b1-3)[Fuc(a1-4)]GlcNAc(b1-3)Gal(b1-4)[Fuc(a1-3)]GlcNAc
Outline: as §1

[30] = biological target: Gal(b1-3)[Fuc(a1-4)]GlcNAc(b1-6)GalNAc
Outline: as §1

[31] = biological target: Gal(b1-3)[GlcNAc(b1-6)]GalNAc
Outline: as §1

[32] = biological target: Gal(b1-3)[Neu5Ac(a2-6)]GalNAc
Outline: as §1

[33] = biological target: Gal(b1-3)[Neu5Ac(a2-6)]GlcNAc(b1-4)Gal(b1-4)Glc
Outline: as §1

[34] = biological target: Gal(b1-3)[Neu5Ac(b2-6)]GalNAc
Outline: as §1

Gal(b1-4)Gal = biological target: Gal(b1-4)Gal
Outline: as §1

[35] = biological target: Gal(b1-4)GalNAc(a1-3)[Fuc(a1-2)]Gal(b1-4)GlcNAc
Outline: as §1

[36] = biological target: Gal(b1-4)GalNAc(b1-3)[Fuc(a1-2)]Gal(b1-4)GlcNAc
Outline: as §1

B1: LecB LY19 (Pseudomonas aeruginosa) (protein)
chain: MATQGVFTLPANTQFGVTAFANSAGTQTVNVQVNNETVATFTGQSTNNGIIGSKVLNSGGGGKVQILVSVNGRSSDLVSAQVILANELNFALVGSEDSTDNDYNDAVVVINWPLG
glycan array binding signal (z-score) (Gal(b1-2)Gal): -0.514 | glycan array binding signal (z-score) (Gal(b1-3)Gal): -0.53 | glycan array binding signal (z-score) (Gal(b1-3)Gal(b1-4)GlcNAc): -0.55 | glycan array binding signal (z-score) (Gal(b1-3)GalNAc): -0.413 | glycan array binding signal (z-score) [1]: -0.512 | glycan array binding signal (z-score) [2]: -0.492 | glycan array binding signal (z-score) (Gal(b1-3)GalNAc(b1-3)Gal): -0.551 | glycan array binding signal (z-score) [3]: -0.534 | glycan array binding signal (z-score) [4]: -0.542 | glycan array binding signal (z-score) [5]: -0.485 | glycan array binding signal (z-score) (Gal(b1-3)GlcNAc): -0.552 | glycan array binding signal (z-score) [6]: -0.546 | glycan array binding signal (z-score) [7]: -0.55 | glycan array binding signal (z-score) (Gal(b1-3)GlcNAc(b1-2)Man): -0.509 | glycan array binding signal (z-score) [8]: -0.201 | glycan array binding signal (z-score) [9]: 0.173 | glycan array binding signal (z-score) [10]: -0.306 | glycan array binding signal (z-score) [11]: -0.314 | glycan array binding signal (z-score) [12]: -0.554 | glycan array binding signal (z-score) [13]: -0.352 | glycan array binding signal (z-score) [14]: -0.553 | glycan array binding signal (z-score) [15]: -0.429 | glycan array binding signal (z-score) [16]: 0.152 | glycan array binding signal (z-score) [17]: 0.828 | glycan array binding signal (z-score) [18]: -0.489 | glycan array binding signal (z-score) [19]: 0.092 | glycan array binding signal (z-score) [20]: 0.2 | glycan array binding signal (z-score) [21]: -0.544 | glycan array binding signal (z-score) [22]: -0.55 | glycan array binding signal (z-score) [23]: -0.547 | glycan array binding signal (z-score) [24]: -0.447 | glycan array binding signal (z-score) (Gal(b1-3)GlcNAc6S): -0.533 | glycan array binding signal (z-score) [25]: 2.35 | glycan array binding signal (z-score) [26]: -0.046 | glycan array binding signal (z-score) [27]: -0.151 | glycan array binding signal (z-score) [28]: 3.35 | glycan array binding signal (z-score) [29]: 4.05 | glycan array binding signal (z-score) [30]: 0.57 | glycan array binding signal (z-score) [31]: -0.544 | glycan array binding signal (z-score) [32]: -0.552 | glycan array binding signal (z-score) [33]: -0.537 | glycan array binding signal (z-score) [34]: -0.555 | glycan array binding signal (z-score) (Gal(b1-4)Gal): -0.531 | glycan array binding signal (z-score) [35]: -0.449 | glycan array binding signal (z-score) [36]: -0.46
